# Laboratory results taken from the supplement of paper PMC8728848.
# This is one part of the list.
# Key:
# Assay in all cases: glycan array binding signal (z-score within array); higher = stronger binding
# Details in all cases: glycan notation: IUPAC condensed, linker removed
# [1] = target: Fuc(a1-2)[Gal(a1-3)]Gal(b1-4)GlcNAc(b1-2)Man(a1-3)[Fuc(a1-2)[Gal(a1-3)]Gal(b1-4)GlcNAc(b1-2)Man(a1-6)]Man(b1-4)GlcNAc(b1-4)GlcNAc
# Outline: (§1)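 Arrays were curated from the Consortium for Functional Glycomics database, 3228 in total, and kept only where the protein sequence was available. Binding is expressed as a within-array Z-score. This score was averaged across arrays of the same protein sequence at different concentrations or buffers and across linkers, and negative values can be read as non-binding.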
# [2] = target: Fuc(a1-2)[Gal(a1-3)]Gal(b1-4)GlcNAc(b1-2)Man(a1-3)[Fuc(a1-2)[Gal(a1-3)]Gal(b1-4)GlcNAc(b1-2)Man(a1-6)]Man(b1-4)GlcNAc(b1-4)[Fuc(a1-6)]GlcNAc
# Outline: as §1
# [3] = target: Fuc(a1-2)[Gal(a1-3)]Gal(b1-4)GlcNAc(b1-3)GalNAc
# Outline: as §1
# [4] = target: Fuc(a1-2)[Gal(a1-3)]Gal(b1-4)GlcNAc(b1-3)[Fuc(a1-2)[Gal(a1-3)]Gal(b1-4)GlcNAc(b1-6)]GalNAc
# Outline: as §1
# [5] = target: Fuc(a1-2)[Gal(a1-3)]Gal(b1-4)GlcNAc(b1-6)GalNAc
# Outline: as §1
# [6] = target: Fuc(a1-2)[Gal(a1-3)]Gal(b1-4)[Fuc(a1-3)]Glc
# Outline: as §1
# [7] = target: Fuc(a1-2)[Gal(a1-3)]Gal(b1-4)[Fuc(a1-3)]GlcNAc
# Outline: as §1
# [8] = target: Fuc(a1-2)[Gal(a1-3)]Gal(b1-4)[Fuc(a1-3)]GlcNAc(b1-3)GalNAc
# Outline: as §1
# [9] = target: Fuc(a1-2)[Gal(a1-4)]Gal(b1-4)GlcNAc
# Outline: as §1
# [10] = target: Fuc(a1-2)[GalNAc(a1-3)]Gal
# Outline: as §1
# [11] = target: Fuc(a1-2)[GalNAc(a1-3)]Gal(b1-3)GalNAc(a1-3)[Fuc(a1-2)]Gal(b1-4)GlcNAc
# Outline: as §1
# [12] = target: Fuc(a1-2)[GalNAc(a1-3)]Gal(b1-3)GalNAc(b1-3)Gal(a1-4)Gal(b1-4)Glc
# Outline: as §1
# [13] = target: Fuc(a1-2)[GalNAc(a1-3)]Gal(b1-3)GlcNAc
# Outline: as §1
# [14] = target: Fuc(a1-2)[GalNAc(a1-3)]Gal(b1-3)GlcNAc(b1-2)Man(a1-3)[Fuc(a1-2)[GalNAc(a1-3)]Gal(b1-3)GlcNAc(b1-2)Man(a1-6)]Man(b1-4)GlcNAc(b1-4)GlcNAc
# Outline: as §1
# [15] = target: Fuc(a1-2)[GalNAc(a1-3)]Gal(b1-3)GlcNAc(b1-2)Man(a1-3)[Fuc(a1-2)[GalNAc(a1-3)]Gal(b1-3)GlcNAc(b1-2)Man(a1-6)]Man(b1-4)GlcNAc(b1-4)[Fuc(a1-6)]GlcNAc
# Outline: as §1
# [16] = target: Fuc(a1-2)[GalNAc(a1-3)]Gal(b1-3)GlcNAc(b1-3)GalNAc
# Outline: as §1
# [17] = target: Fuc(a1-2)[GalNAc(a1-3)]Gal(b1-3)GlcNAc(b1-6)GalNAc
# Outline: as §1
# [18] = target: Fuc(a1-2)[GalNAc(a1-3)]Gal(b1-4)Glc
# Outline: as §1
# [19] = target: Fuc(a1-2)[GalNAc(a1-3)]Gal(b1-4)GlcNAc
# Outline: as §1
# [20] = target: Fuc(a1-2)[GalNAc(a1-3)]Gal(b1-4)GlcNAc(b1-2)Man
# Outline: as §1
# [21] = target: Fuc(a1-2)[GalNAc(a1-3)]Gal(b1-4)GlcNAc(b1-2)Man(a1-3)[Fuc(a1-2)[GalNAc(a1-3)]Gal(b1-4)GlcNAc(b1-2)Man(a1-6)]Man(b1-4)GlcNAc(b1-4)GlcNAc
# Outline: as §1
# [22] = target: Fuc(a1-2)[GalNAc(a1-3)]Gal(b1-4)GlcNAc(b1-2)Man(a1-3)[Fuc(a1-2)[GalNAc(a1-3)]Gal(b1-4)GlcNAc(b1-2)Man(a1-6)]Man(b1-4)GlcNAc(b1-4)[Fuc(a1-6)]GlcNAc
# Outline: as §1
# [23] = target: Fuc(a1-2)[GalNAc(a1-3)]Gal(b1-4)GlcNAc(b1-3)Gal(b1-4)GlcNAc
# Outline: as §1
# [24] = target: Fuc(a1-2)[GalNAc(a1-3)]Gal(b1-4)GlcNAc(b1-3)Gal(b1-4)GlcNAc(b1-3)Gal(b1-4)GlcNAc
# Outline: as §1
# [25] = target: Fuc(a1-2)[GalNAc(a1-3)]Gal(b1-4)GlcNAc(b1-3)GalNAc
# Outline: as §1
# [26] = target: Fuc(a1-2)[GalNAc(a1-3)]Gal(b1-4)GlcNAc(b1-3)[Fuc(a1-2)[GalNAc(a1-3)]Gal(b1-4)GlcNAc(b1-6)]GalNAc
# Outline: as §1
# [27] = target: Fuc(a1-2)[GalNAc(a1-3)]Gal(b1-4)GlcNAc(b1-6)GalNAc
# Outline: as §1
# [28] = target: Fuc(a1-2)[GalNAc(a1-3)]Gal(b1-4)[Fuc(a1-3)]GlcNAc
# Outline: as §1
# [29] = target: Fuc(a1-2)[GalNAc(a1-3)]Gal(b1-4)[Fuc(a1-3)]GlcNAc(b1-3)GalNAc
# Outline: as §1
# [30] = target: Fuc(a1-2)[GalNAc(a1-4)]Gal(b1-4)GlcNAc
# Outline: as §1
binder,measurement,setting,value
DC-ASGPR S+GEE (Homo sapiens) (protein) MTRTYENFQYLENKVKVQGFKNGPLPLQSLLQRLRSGPCHLLLSLGLGLLLLVIICVVGFQNSKFQRDLVTLRTDFSNFTSNTVAEIQALTSQGSSLEETIASLKAEVEGFKQERQAVHSEMLLRVQQLVQDLKKLTCQVATINNNGEEASTEGTCCPVNWVEHQDSCYWFSHSGMSWAEAEKYCQLKNAHLVVINSREEQNFVQKYLGSAYTWMGLSDPEGAWKWVDGTDYATGFQNWKPGQPDDWQGHGLGGGEDCAHFHPDGRWNDDVCQRPYHWVCEAGLGQTSQESH,glycan array binding signal (z-score),[1],-0.323
same,glycan array binding signal (z-score),[2],-0.192
same,glycan array binding signal (z-score),[3],-0.318
same,glycan array binding signal (z-score),[4],-0.256
same,glycan array binding signal (z-score),[5],-0.314
same,glycan array binding signal (z-score),[6],-0.286
same,glycan array binding signal (z-score),[7],-0.511
same,glycan array binding signal (z-score),[8],-0.286
same,glycan array binding signal (z-score),[9],-0.38
same,glycan array binding signal (z-score),[10],0.972
same,glycan array binding signal (z-score),[11],0.763
same,glycan array binding signal (z-score),[12],0.842
same,glycan array binding signal (z-score),[13],0.865
same,glycan array binding signal (z-score),[14],0.728
same,glycan array binding signal (z-score),[15],0.455
same,glycan array binding signal (z-score),[16],0.296
same,glycan array binding signal (z-score),[17],3.69
same,glycan array binding signal (z-score),[18],0.468
same,glycan array binding signal (z-score),[19],0.712
same,glycan array binding signal (z-score),[20],0.714
same,glycan array binding signal (z-score),[21],0.788
same,glycan array binding signal (z-score),[22],0.233
same,glycan array binding signal (z-score),[23],0.807
same,glycan array binding signal (z-score),[24],0.679
same,glycan array binding signal (z-score),[25],0.456
same,glycan array binding signal (z-score),[26],0.739
same,glycan array binding signal (z-score),[27],3.35
same,glycan array binding signal (z-score),[28],0.505
same,glycan array binding signal (z-score),[29],-0.099
same,glycan array binding signal (z-score),[30],3.75
